Test results published in a compilation of properties of binary mixtures (doi:10.1007/s10953-010-9507-z).
The densities may have been worked out from excess volumes.

Assay: xn = mol fraction of the nth substance listed
Conditions: 298.15 K, 101 kPa

| SMILES | mass density (x1 = 0.0522) [kg/m3] | mass density (x1 = 0.1818) [kg/m3] | mass density (x1 = 0.2982) [kg/m3] | mass density (x1 = 0.4204) [kg/m3] | mass density (x1 = 0.4752) [kg/m3] | mass density (x1 = 0.5937) [kg/m3] | mass density (x1 = 0.6953) [kg/m3] | mass density (x1 = 0.7954) [kg/m3] | mass density (x1 = 0.8933) [kg/m3] | mass density (x2 = 0.0793) [kg/m3] | mass density (x2 = 0.1393) [kg/m3] | mass density (x2 = 0.2058) [kg/m3] | mass density (x2 = 0.2578) [kg/m3] | mass density (x2 = 0.345) [kg/m3] | mass density (x2 = 0.384) [kg/m3] | mass density (x2 = 0.4122) [kg/m3] | mass density (x2 = 0.5622) [kg/m3] | mass density (x2 = 0.688) [kg/m3] | mass density (x2 = 0.7967) [kg/m3] | mass density (x2 = 0.8984) [kg/m3] |
| --- | --- | --- | --- | --- | --- | --- | --- | --- | --- | --- | --- | --- | --- | --- | --- | --- | --- | --- | --- | --- |
| CCOC(C)=O + CCCC[n+]1ccn(C)c1.O=S(=O)([N-]S(=O)(=O)C(F)(F)F)C(F)(F)F | 1427 | 1401.1 | 1372.5 | 1335.8 | 1316.1 | 1265.7 | 1210 | 1138.6 | 1043.8 |  |  |  |  |  |  |  |  |  |  |  |
| CCCC[n+]1ccn(C)c1.O=S(=O)([N-]S(=O)(=O)C(F)(F)F)C(F)(F)F + CCO |  |  |  |  |  |  |  |  |  | 1425.6 | 1416.2 | 1404.6 | 1394.5 | 1374.8 | 1364.9 | 1357.2 | 1304.8 | 1239.3 | 1153.3 | 1023.9 |
